Experimental data as given in US7592316B2, “Peptides as NS3-serine protease inhibitors of hepatitis C virus” (Schering Corporation, priority 2000, dated 2009).
pKi: −log10 of the molar value. *1 amine or outer side, *2 acyl side, *3 side chain or, on linkers, in order; H or OH if unused. Where a SMILES comes first, the peptide text is derived from it. [ ]: non-standard residue; d: D form. The star is where a group is joined. ξ: configuration not given here. Pro(4,4-S(CH2)3S) = O=C(O)[C@@H]1CC2(CN1)SCCCS2; Isobutyloxycarbonyl = CC(C)COC(=O)*; Cyclopentylacetyl = O=C(CC1CCCC1)*; X15 = CC(=O)Nc1ccc(S(=O)(=O)*)cc1; X4 = CCCCC(N[*:1])C(=O)C(=O)[*:2]; X2 = CCCC(N[*:1])C(=O)C(=O)[*:2]; Benzyl(4-Cl) = Clc1ccc(C*)cc1; Chg = N[C@H](C(=O)O)C1CCCCC1; Phg = N[C@H](C(=O)O)c1ccccc1; Tle = CC(C)(C)[C@H](N)C(=O)O; X13 = c1ccc(-c2ccccc2C*)cc1; X22 = CC(C)(C)c1ccc(C*)cc1; ξChg = NC(C(=O)O)C1CCCCC1; ξPhg = NC(C(=O)O)c1ccccc1; X56 = O=C(OC1CCOCC1)*; X45 = O=C(OC1CCCC1)*; N(Me)OMe = CON(C)*; OtBu = CC(C)(C)O*

biological target: HCV NS3/NS4A protease (strain 1a) (Hepatitis C virus genotype 1a, UniProt P27958); test: biochemical; conditions: HCV protease continuous assay results, Table 1; read-out: Ki* Range

Structure (SMILES) | pKi
CCCC(NC(=O)[C@@H]1CC2(CN1C(=O)[C@@H](NC(=O)CC1CCCC1)C1CCCCC1)SCCCS2)C(=O)C(=O)NCC(=O)NC(C(N)=O)c1ccccc1 (stereo partly shown) [Example 110] (Cyclopentylacetyl-[Chg][Pro(4,4-S(CH2)3S)][X2]G[ξPhg]-NH2) | 7.00 to 9.00
CCCC(NC(=O)[C@@H]1CC2(CN1C(=O)C(NC(=O)OCC(C)C)C1CCCCC1)SCCCS2)C(=O)C(=O)NCC(=O)NC(C(=O)NC)c1ccccc1 (stereo partly shown) [Example 111] (Isobutyloxycarbonyl-[ξChg][Pro(4,4-S(CH2)3S)][X2]G[ξPhg]-NHMe) | 7.00 to 9.00
CCCC(NC(=O)[C@@H]1CC2(CN1C(=O)C(NC(=O)OCC(C)C)C1CCCCC1)SCCCS2)C(=O)C(=O)NCC(=O)NC(C(=O)N(C)C)c1ccccc1 (stereo partly shown) [Example 112] (Isobutyloxycarbonyl-[ξChg][Pro(4,4-S(CH2)3S)][X2]G[ξPhg]-NMe2) | 7.00 to 9.00
CCCC(NC(=O)[C@@H]1CC2(CN1C(=O)[C@@H](NC(=O)OCC(C)C)[C@@H](C)OCc1ccc(Cl)cc1)SCCCS2)C(=O)C(=O)NCC(=O)N[C@H](C(=O)O)c1ccccc1 (stereo partly shown) [Example 113] (Isobutyloxycarbonyl-T(Benzyl(4-Cl))[Pro(4,4-S(CH2)3S)][X2]G[Phg]-OH) | 6.00 to 7.00
CCCC(NC(=O)[C@@H]1CC2(CN1C(=O)[C@@H](NC(=O)OCC(C)C)[C@@H](C)OCc1ccc(C(C)(C)C)cc1)SCCCS2)C(=O)C(=O)NCC(=O)N[C@H](C(=O)O)c1ccccc1 (stereo partly shown) [Example 114] (Isobutyloxycarbonyl-T(X22)[Pro(4,4-S(CH2)3S)][X2]G[Phg]-OH) | 7.00 to 9.00
CCCC(NC(=O)[C@@H]1CC2(CN1C(=O)[C@@H](NC(=O)OCC(C)C)[C@@H](C)OCc1ccc(Cl)cc1)SCCCS2)C(=O)C(=O)NCC(=O)N[C@H](C(=O)N(C)C)c1ccccc1 (stereo partly shown) [Example 115] (Isobutyloxycarbonyl-T(Benzyl(4-Cl))[Pro(4,4-S(CH2)3S)][X2]G[Phg]-NMe2) | 6.00 to 7.00
CCCC(NC(=O)[C@@H]1CC2(CN1C(=O)[C@@H](NC(=O)[C@H](CC(C)C)NC(C)=O)C1CCCCC1)SCCCS2)C(=O)C(=O)NCC(=O)NC(C(=O)OC(C)(C)C)c1ccccc1 (stereo partly shown) [Example 116] (Ac-L[Chg][Pro(4,4-S(CH2)3S)][X2]G[ξPhg]-OtBu) | 7.00 to 9.00
CCCC(NC(=O)[C@@H]1CC2(CN1C(=O)[C@@H](NC(=O)[C@H](CC(C)C)NC(C)=O)C1CCCCC1)SCCCS2)C(=O)C(=O)NCC(=O)NC(C(=O)O)c1ccccc1 (stereo partly shown) [Example 117] (Ac-L[Chg][Pro(4,4-S(CH2)3S)][X2]G[ξPhg]-OH) | 7.00 to 9.00
CCCC(NC(=O)[C@@H]1CC2(CN1C(=O)[C@@H](NC(=O)[C@H](CC(C)C)NC(C)=O)C1CCCCC1)SCCCS2)C(=O)C(=O)NCC(=O)NC(C(N)=O)c1ccccc1 (stereo partly shown) [Example 118] (Ac-L[Chg][Pro(4,4-S(CH2)3S)][X2]G[ξPhg]-NH2) | 7.00 to 9.00
CCCC(NC(=O)[C@@H]1CC2(CN1C(=O)[C@@H](NC(=O)[C@H](CC(C)C)NC(C)=O)C1CCCCC1)SCCCS2)C(=O)C(=O)NCC(=O)NC(C(=O)N(C)C)c1ccccc1 (stereo partly shown) [Example 119] (Ac-L[Chg][Pro(4,4-S(CH2)3S)][X2]G[ξPhg]-NMe2) | 7.00 to 9.00
CCCC(NC(=O)[C@@H]1CC2(CN1C(=O)[C@@H](NC(=O)[C@H](CC(C)C)NC(C)=O)C1CCCCC1)SCCCS2)C(=O)C(=O)NCC(=O)NC(C(=O)N(C)OC)c1ccccc1 (stereo partly shown) [Example 120] (Ac-L[Chg][Pro(4,4-S(CH2)3S)][X2]G[ξPhg]-{N(Me)OMe}) | 7.00 to 9.00
CCCC(NC(=O)[C@@H]1CC2(CN1C(=O)[C@@H](NC(=O)OCC(C)C)[C@@H](C)OCc1ccccc1-c1ccccc1)SCCCS2)C(=O)C(=O)NCC(=O)N[C@H](C(=O)O)c1ccccc1 (stereo partly shown) [Example 121] (Isobutyloxycarbonyl-T(X13)[Pro(4,4-S(CH2)3S)][X2]G[Phg]-OH) | 6.00 to 7.00
CCCC(NC(=O)[C@@H]1CC2(CN1C(=O)[C@@H](NS(=O)(=O)c1ccc(NC(C)=O)cc1)C1CCCCC1)SCCCS2)C(=O)C(=O)NCC(=O)NC(C(=O)OC(C)(C)C)c1ccccc1 (stereo partly shown) [Example 122] (X15-[Chg][Pro(4,4-S(CH2)3S)][X2]G[ξPhg]-OtBu) | 6.00 to 7.00
CCCC(NC(=O)[C@@H]1CC2(CN1C(=O)[C@@H](NS(=O)(=O)c1ccc(NC(C)=O)cc1)C1CCCCC1)SCCCS2)C(=O)C(=O)NCC(=O)NC(C(=O)O)c1ccccc1 (stereo partly shown) [Example 123] (X15-[Chg][Pro(4,4-S(CH2)3S)][X2]G[ξPhg]-OH) | 7.00 to 9.00
CCCC(NC(=O)[C@@H]1CC2(CN1C(=O)[C@@H](NS(=O)(=O)c1ccc(NC(C)=O)cc1)C1CCCCC1)SCCCS2)C(=O)C(=O)NCC(=O)NC(C(N)=O)c1ccccc1 (stereo partly shown) [Example 124] (X15-[Chg][Pro(4,4-S(CH2)3S)][X2]G[ξPhg]-NH2) | 6.00 to 7.00
CCCC(NC(=O)[C@@H]1CC2(CN1C(=O)[C@@H](NS(=O)(=O)c1ccc(NC(C)=O)cc1)C1CCCCC1)SCCCS2)C(=O)C(=O)NCC(=O)NC(C(=O)C(C)C)c1ccccc1 (stereo partly shown) [Example 125] | 6.00 to 7.00
CCCC(NC(=O)[C@@H]1CC2(CN1C(=O)[C@@H](NC(=O)OC1CCOCC1)C1CCCCC1)SCCCS2)C(=O)C(=O)NCC(=O)NC(C(=O)OC(C)(C)C)c1ccccc1 (stereo partly shown) [Example 126] (X56-[Chg][Pro(4,4-S(CH2)3S)][X2]G[ξPhg]-OtBu) | 6.00 to 7.00

Structure (SMILES) | pKi
CCCC(NC(=O)[C@@H]1CC2(CN1C(=O)[C@@H](NC(=O)OC1CCOCC1)C1CCCCC1)SCCCS2)C(=O)C(=O)NCC(=O)NC(C(=O)O)c1ccccc1 (stereo partly shown) [Example 127] (X56-[Chg][Pro(4,4-S(CH2)3S)][X2]G[ξPhg]-OH) | 7.00 to 9.00
CCCC(NC(=O)[C@@H]1CC2(CN1C(=O)[C@@H](NC(=O)OC1CCOCC1)C1CCCCC1)SCCCS2)C(=O)C(=O)NCC(=O)NC(C(N)=O)c1ccccc1 (stereo partly shown) [Example 128] (X56-[Chg][Pro(4,4-S(CH2)3S)][X2]G[ξPhg]-NH2) | 7.00 to 9.00
CCCC(NC(=O)[C@@H]1CC2(CN1C(=O)[C@@H](NC(=O)OC1CCOCC1)C1CCCCC1)SCCCS2)C(=O)C(=O)NCC(=O)NC(C(=O)N(C)C)c1ccccc1 (stereo partly shown) [Example 129] (X56-[Chg][Pro(4,4-S(CH2)3S)][X2]G[ξPhg]-NMe2) | 7.00 to 9.00
CCCC(NC(=O)[C@@H]1CC2(CN1C(=O)[C@@H](NC(=O)OCC(C)C)C(C)(C)C)SCCCS2)C(=O)C(=O)NCC(=O)NC(C(=O)OC(C)(C)C)c1ccccc1 (stereo partly shown) [Example 130] (Isobutyloxycarbonyl-[Tle][Pro(4,4-S(CH2)3S)][X2]G[ξPhg]-OtBu) | 6.00 to 7.00
CCCC(NC(=O)[C@@H]1CC2(CN1C(=O)[C@@H](NC(=O)OCC(C)C)C(C)(C)C)SCCCS2)C(=O)C(=O)NCC(=O)NC(C(=O)O)c1ccccc1 (stereo partly shown) [Example 131] (Isobutyloxycarbonyl-[Tle][Pro(4,4-S(CH2)3S)][X2]G[ξPhg]-OH) | 7.00 to 9.00
CCCC(NC(=O)[C@@H]1CC2(CN1C(=O)[C@@H](NC(=O)OCC(C)C)C(C)(C)C)SCCCS2)C(=O)C(=O)NCC(=O)NC(C(N)=O)c1ccccc1 (stereo partly shown) [Example 132] (Isobutyloxycarbonyl-[Tle][Pro(4,4-S(CH2)3S)][X2]G[ξPhg]-NH2) | 7.00 to 9.00
CCCC(NC(=O)[C@@H]1CC2(CN1C(=O)[C@@H](NC(=O)OCC(C)C)C(C)(C)C)SCCCS2)C(=O)C(=O)NCC(=O)NC(C(=O)N(C)C)c1ccccc1 (stereo partly shown) [Example 133] (Isobutyloxycarbonyl-[Tle][Pro(4,4-S(CH2)3S)][X2]G[ξPhg]-NMe2) | 7.00 to 9.00
CCCC(NC(=O)[C@@H]1CC2(CN1C(=O)[C@@H](NC(=O)CC1CCCC1)C1CCCCC1)SCCCS2)C(=O)C(=O)NCC(=O)NC(C(=O)OC(C)(C)C)c1ccccc1 (stereo partly shown) [Example 134] (Cyclopentylacetyl-[Chg][Pro(4,4-S(CH2)3S)][X2]G[ξPhg]-OtBu) | 6.00 to 7.00
CCCC(NC(=O)[C@@H]1CC2(CN1C(=O)[C@@H](NC(=O)CC1CCCC1)C1CCCCC1)SCCCS2)C(=O)C(=O)NCC(=O)NC(C(=O)O)c1ccccc1 (stereo partly shown) [Example 135] (Cyclopentylacetyl-[Chg][Pro(4,4-S(CH2)3S)][X2]G[ξPhg]-OH) | 7.00 to 9.00
CCCC(NC(=O)[C@@H]1CC2(CN1C(=O)[C@@H](NC(=O)CC1CCCC1)C1CCCCC1)SCCCS2)C(=O)C(=O)NCC(=O)NC(C(=O)N(C)C)c1ccccc1 (stereo partly shown) [Example 136] (Cyclopentylacetyl-[Chg][Pro(4,4-S(CH2)3S)][X2]G[ξPhg]-NMe2) | 7.00 to 9.00
CCCC(NC(=O)[C@@H]1CC2(CN1C(=O)[C@@H](NC(=O)CC1CCCC1)C1CCCCC1)SCCCS2)C(=O)C(=O)NCC(=O)NC(C(=O)N(C)OC)c1ccccc1 (stereo partly shown) [Example 137] (Cyclopentylacetyl-[Chg][Pro(4,4-S(CH2)3S)][X2]G[ξPhg]-{N(Me)OMe}) | 7.00 to 9.00
CCCC(NC(=O)[C@@H]1CC2(CN1C(=O)[C@@H](NC(=O)OC1CCCC1)C1CCCCC1)SCCCS2)C(=O)C(=O)NCC(=O)NC(C(=O)O)c1ccccc1 (stereo partly shown) [Example 138] (X45-[Chg][Pro(4,4-S(CH2)3S)][X2]G[ξPhg]-OH) | 7.00 to 9.00
CCCC(NC(=O)[C@@H]1CC2(CN1C(=O)[C@@H](NC(=O)OC1CCCC1)C1CCCCC1)SCCCS2)C(=O)C(=O)NCC(=O)NC(C(=O)N(C)C)c1ccccc1 (stereo partly shown) [Example 139] (X45-[Chg][Pro(4,4-S(CH2)3S)][X2]G[ξPhg]-NMe2) | 7.00 to 9.00
CCCCC(NC(=O)[C@@H]1CC2(CN1C(=O)[C@@H](NC(=O)OCC(C)C)C1CCCCC1)SCCCS2)C(=O)C(=O)NCC(=O)NC(C(=O)OC(C)(C)C)c1ccccc1 (stereo partly shown) [Example 140] (Isobutyloxycarbonyl-[Chg][Pro(4,4-S(CH2)3S)][X4]G[ξPhg]-OtBu) | 6.00 to 7.00
CCCCC(NC(=O)[C@@H]1CC2(CN1C(=O)[C@@H](NC(=O)OCC(C)C)C1CCCCC1)SCCCS2)C(=O)C(=O)NCC(=O)NC(C(=O)O)c1ccccc1 (stereo partly shown) [Example 141] (Isobutyloxycarbonyl-[Chg][Pro(4,4-S(CH2)3S)][X4]G[ξPhg]-OH) | 7.00 to 9.00
CCCCC(NC(=O)[C@@H]1CC2(CN1C(=O)[C@@H](NC(=O)OCC(C)C)C1CCCCC1)SCCCS2)C(=O)C(=O)NCC(=O)NC(C(=O)N(C)C)c1ccccc1 (stereo partly shown) [Example 142] (Isobutyloxycarbonyl-[Chg][Pro(4,4-S(CH2)3S)][X4]G[ξPhg]-NMe2) | 7.00 to 9.00
CCCCC(NC(=O)[C@@H]1CC2(CN1C(=O)[C@@H](NC(=O)OCC(C)C)C1CCCCC1)SCCCS2)C(=O)C(=O)NCC(=O)NC(C(=O)N(C)OC)c1ccccc1 (stereo partly shown) [Example 143] (Isobutyloxycarbonyl-[Chg][Pro(4,4-S(CH2)3S)][X4]G[ξPhg]-{N(Me)OMe}) | 6.00 to 7.00
